Reference: PubChem BioAssay AID1508642 (National Center for Advancing Translational Sciences (NCATS), 2021)
About 200 (0.47%) of roughly 43,000 compounds were called active. Another 12% or so got no clear call; they are omitted. Calls come from the whole dose curve; as a rule, active = well fitted cell-killing curve with a large enough effect; inconclusive = small, poorly fitted or top-dose-only effect, or effect the other way; inactive = flat fitted curve, though single readings scatter. The list shows a part of the results.

Assay: Cell viability qHTS assay in S16 Pmp22-F2sN cells; note: nearly all actives have a fitted effect of over 65% in size
Conditions: S16 Pmp22-F2sN Schwann cells (luciferase reporters placed in the Pmp22 gene) viability, CellTiter-Glo, 24 h; series mostly up to 57.5 µM; activity change, negative = cytotoxicity: at the top concentration
In short: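 S16 Schwann cells carrying the Pmp22-F2sN reporter, seeded in 1536-well format, were exposed to library compounds for 24 h at 37C. Viability was read as CellTiter-Glo luminescence after 15 min at room temperature.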
% is set by controls: 0 for no effect and ±100 for the full control effect; potency is the fitted concentration of half-maximal effect.

| Compound | activity change, negative = cytotoxicity | Potency |
| --- | --- | --- |
| O=C(Cn1cnc2onc(-c3ccc(F)cc3)c2c1=O)Nc1cccc(C(F)(F)F)c1 | inactive: -12.3% | – |
| CS(=O)(=O)N(CC(=O)NCCSCc1ccccc1)c1cc(C(F)(F)F)ccc1Cl | inactive: 2.71% | – |
| COc1ccc(NC(=O)CC2C(=O)N(c3ccccc3)C(=O)N2C2CCCCC2)cc1 (stereo not drawn) | inactive: 15.5% | – |
| CCOC(=O)c1nnn(CC(=O)Nc2cc(C)cc(C)c2)c1C(=O)OCC | inactive: 2.31% | – |
| CCOC(=O)c1ccc(NC(=O)c2nc(SC(C)C)ncc2Cl)cc1 | inactive: -9.27% | – |
| COc1ccc(CCNS(=O)(=O)c2ccc(N3CCCCS3(=O)=O)cc2)cc1OC | inactive: -5.12% | – |
| Cc1nc2c(-c3ccccc3)c(C)nn2c(C)c1CCC(=O)NCc1ccc(Cl)cc1 | inactive: 23.3% | – |
| Cc1ccc(CNC(=O)CCCN2C(=O)CCn3nc(-c4cn(C)c5ccccc45)cc32)cc1 | inactive: -3.96% | – |
| CCc1ccc(NC(=O)N2c3ccccc3Sc3ccccc32)cc1 | inactive: -0.346% | – |
| CCN(Cc1ccccc1)S(=O)(=O)c1ccc2c(c1)CCCN2C(C)=O | inactive: -7.49% | – |
| Cc1ccc(C)c(Cn2cnc3c(cnn3-c3ccc(F)cc3)c2=O)c1 | inactive: 5.12% | – |
| CCOc1ccc(CNC(=O)Cn2ccc3cc(S(=O)(=O)N4CCCCCC4)ccc32)cc1 | inactive: -12.9% | – |
| CCCCOC(=O)c1ccc(NC(=O)CC2NCCNC2=O)cc1 (stereo not drawn) | inactive: 6.63% | – |
| COCCCNC(=O)C1CCC(CNS(=O)(=O)c2ccc(OC)cc2)CC1 (stereo not drawn) | inactive: 6.05% | – |
| Cc1ccc(NC(=O)Cn2c(=O)ccc3cc(S(=O)(=O)N4CCC(C)CC4)ccc32)c(C)c1 | inactive: -1.13% | – |
| CCOC(=O)c1cc2c(=O)n3ccccc3nc2n(C)c1=NC(=O)c1c(-c2ccccc2Cl)noc1C | inactive: 10.9% | – |
| COc1ccc(-n2cc(C(=O)Nc3cc(F)ccc3F)c3ccccc3c2=O)cc1 | inactive: -14.3% | – |
| COc1cc(-c2cc3n(C)c(C)c(CCC(=O)NCc4ccccc4)c(=O)n3n2)cc(OC)c1OC | inactive: 2.09% | – |
| COc1cccc(CNC(=O)C2CCN(Cc3cc4ccccc4n3Cc3ccc(C)cc3)CC2)c1 | inactive: -21.7% | – |
| CCN(CC)c1ccc(NC(=O)c2sc3ccccc3c2Cl)cc1 | inactive: 19.5% | – |
| COc1ccc(OC)c(-c2noc(N3CCN(c4cc(C)ccc4C)CC3)n2)c1 | inactive: 21.5% | – |
| CCOC(=O)Cc1ccc(NC(=O)Nc2cc3c(cc2N2CCCCC2)n(C)c(=O)n3C)cc1 | inactive: -0.952% | – |
| CCCn1c(=N)c(C(=O)NCc2cccnc2)cc2c(=O)n3ccccc3nc21 | inactive: 20.6% | – |
| COc1ccc(NC(=O)C(Cc2ccccc2)NS(=O)(=O)c2ccc3c(c2)CCN3C(C)=O)cc1 (stereo not drawn) | inactive: 0.704% | – |
| CCOC(=O)c1cc(OC(=O)c2ccc(OC)cc2)n(-c2ccccc2)n1 | inactive: 9.69% | – |

| Compound | activity change, negative = cytotoxicity | Potency |
| --- | --- | --- |
| Cc1ccc(C)c(CNC(=O)c2ccc3c(c2)nc2n3CCC(C)C2)c1 (stereo not drawn) | inactive: 3.91% | – |
| Cc1ccc(N(C)S(=O)(=O)c2nnc(NC(=O)CC(C)C)s2)cc1 | inactive: -0.587% | – |
| COc1ccc(Cl)cc1Nc1cc(C)nc2nc(-c3ccccc3C)nn12 | inactive: 12.2% | – |
| CN(C)c1ccc(C(CNC(=O)c2cccc(C(F)(F)F)c2)N2CCCC2)cc1 (stereo not drawn) | inactive: 1.68% | – |
| CCCSc1nc(-c2ccc(OC)cc2)cc(-c2ccccc2OC)c1C#N | inactive: 24.8% | – |
| Cc1cccc(C)c1NC(=O)CN(Cc1ccc(Br)cc1)S(=O)(=O)c1ccccc1 | inactive: -19% | – |
| COc1ccc(Br)cc1CNC(=O)c1cc(=O)[nH]c2ccc(S(=O)(=O)N3CCCCC3)cc12 | inactive: -0.239% | – |
| CCCC(=O)Nc1cccc(-c2cn3cccnc3n2)c1 | inactive: 4.87% | – |
| Cc1ccc(CNc2ncnc3c2c(-c2ccccc2)cn3-c2ccccc2)cc1 | inactive: -2.81% | – |
| CCOC(=O)c1ccc(NS(=O)(=O)c2ccc3c(c2)OCCO3)cc1 | inactive: -6.07% | – |
| CCOc1ccc(NC(=O)C2CCN(S(=O)(=O)c3c(C)noc3/C=C/c3c(C)cc(C)cc3C)CC2)cc1 | inactive: -0.148% | – |
| COc1ccc(CNC(=O)CCCn2c(=O)c3cccn3c3ccc(F)cc32)cc1OC | inactive: -0.229% | – |
| O=C(Nc1ccc(Cl)c(C(F)(F)F)c1)c1ccc2c(c1)CCN2S(=O)(=O)c1ccccc1 | – | active: 22.4 µM |
| COc1ccc(NC(=O)CN2C(=O)CSc3ccc(S(=O)(=O)N(C)C)cc32)cc1Cl | inactive: -21.4% | – |
| COc1ccc(NC(=O)C2CCN(C(=O)N3CCOc4ccccc43)CC2)cc1 | inactive: -3.65% | – |
| Cc1ccccc1Cn1nnc2c(=O)[nH]c(C3CCN(C(=O)c4ccccc4Cl)CC3)nc21 | inactive: -4.23% | – |
| COc1ccc(NC(=O)N2CCN(S(=O)(=O)c3ccc4c(ccn4C)c3)CC2)cc1OC | inactive: 7.33% | – |
| CCC1CN(C(=O)NCc2ccccc2)c2cc(C)ccc2O1 (stereo not drawn) | inactive: 14.3% | – |
| COCCCNC(=O)C(C)n1c2ccccc2c2cnn(C)c(=O)c21 (stereo not drawn) | inactive: 5.84% | – |
| COc1ccc(-c2noc(N3CCC(C(=O)Nc4ccc(OC)c(OC)c4)CC3)n2)cc1 | inactive: -4.42% | – |
| O=c1c2cc3c(cc2n(Cc2ccccc2)c(=O)n1Cc1nc(-c2ccccc2)no1)OCO3 | inactive: 5.35% | – |
| Cc1ccc(-c2cn3nc(N4CCCC(C(=O)NCc5ccc(F)cc5)C4)sc3n2)cc1 (stereo not drawn) | inactive: 13.3% | – |
| COc1ccc2cc(CNc3ccc(C)cc3)c(=O)n(CC(=O)Nc3ccc(C)cc3Cl)c2c1 | inactive: -1.27% | – |
| CCN1CCSc2ccc(C(=O)NCc3cccc(Br)c3)cc21 | inactive: 3.32% | – |
| CCCCOc1ccccc1C(=O)N(Cc1sccc1C)C1CCS(=O)(=O)C1 (stereo not drawn) | inactive: -5.12% | – |

| Compound | activity change, negative = cytotoxicity | Potency |
| --- | --- | --- |
| Cc1ccc2nc(CN3CCN(S(=O)(=O)c4ccc(C(C)C)cc4)CC3)oc2c1 | inactive: -14.4% | – |
| COC(=O)c1ccc(NC(=O)CCn2cnnn2)c(C)c1 | inactive: 4.47% | – |
| Cc1cc(C)cc(NC(=O)Cn2c(=O)n(-c3ccc(C)c(C)c3)c(=O)c3oc4ccccc4c32)c1 | inactive: 0.66% | – |
| COc1ccc(N2CCN(Cc3nc4c(c(=O)n(C)c(=O)n4C)n3C(C)C)CC2)cc1 | inactive: -11.9% | – |
| Cc1ccc(-n2c(CCC(=O)O)ccc2-c2cccs2)cc1Cl | inactive: 0.467% | – |
| O=C(c1ccco1)N(Cc1cccs1)c1ccc(F)cc1 | inactive: -0.167% | – |
| Cc1cc(O)c(C(c2ccccc2)N2CCN(c3ccc(F)cc3)CC2)c(=O)n1Cc1ccco1 (stereo not drawn) | inactive: 1.08% | – |
| COc1ccc(CNC(=O)c2sc3nc[nH]c(=O)c3c2C)cc1 | inactive: 2.39% | – |
| CCOc1ccccc1N1CC(c2nc3ccccc3n2CCCOc2ccc(OC)cc2)CC1=O (stereo not drawn) | inactive: 0.383% | – |
| COc1cccc(CNC(=O)c2ccc(-n3c(C)cc4c3CCCC4)cc2)c1 | inactive: -18.2% | – |
| Cc1noc(-c2ccccc2OCC(=O)Nc2ccccc2[N+](=O)[O-])n1 | inactive: -4.25% | – |
| CC(C)OCCCN1C(=O)c2[nH]nc(-c3ccccc3O)c2C1c1ccccc1F (stereo not drawn) | inactive: 0.0218% | – |
| CCc1ccc(C(=O)CC2(O)C(=O)N(Cc3ccc(C)cc3)c3ccccc32)cc1 (stereo not drawn) | inactive: -21% | – |
| Cc1cccc(OCc2cc(=O)n3c4c(sc3n2)CCCC4)c1C | inactive: 10.1% | – |
| CCc1ccccc1NC(=O)c1cc2nc(-c3ccc(Br)cc3)cc(C(F)(F)F)n2n1 | inactive: -24.2% | – |
| CC(C)c1nc2ccc(C(=O)NCc3ccccc3Br)cc2o1 | inactive: -4.68% | – |
| COc1ccccc1S(=O)(=O)Cc1ccc(C(=O)N2CCN(c3cc(Cl)ccc3C)CC2)o1 | inactive: -6.27% | – |
| CCc1ccccc1NC(=O)COCc1cc(-c2ccco2)on1 | inactive: -2.41% | – |
| CCOc1ccc(OCC)c(NC(=O)C2CCN(S(=O)(=O)c3ccc4c(c3)CC(C)N4C(C)=O)CC2)c1 (stereo not drawn) | inactive: 16.6% | – |
| Cc1ccc2occ(CC(=O)N(Cc3ccc(Cl)cc3)Cc3ccco3)c2c1 | inactive: -23.1% | – |
| Cc1ccc(N2C(=O)[C@@H]3CSC(c4ccc(Cl)cc4)N3C2=O)cc1 (stereo partly drawn) | inactive: -1.25% | – |
| CCOc1ccc2c(c1)c(=O)c(C(=O)c1ccc(CC)cc1)cn2CC(=O)Nc1cccc(Cl)c1 | inactive: 4.64% | – |
| Cc1cc(C)c(Cn2c(=O)n(CCC(=O)NCc3ccc4c(c3)OCO4)c(=O)c3ccccc32)c(C)c1 | inactive: 24.1% | – |
| COCCNC(=O)Cn1nc(-c2ccc(C)cc2)c2ccccc2c1=O | inactive: 4.54% | – |
| Cc1cccc(NC(=O)c2ccc(CN3CC(=O)N4CCCCC4C3=O)cc2)c1C (stereo not drawn) | inactive: 12% | – |

| Compound | activity change, negative = cytotoxicity | Potency |
| --- | --- | --- |
| Cc1ccc2oc(-c3cccc(NC(=O)c4cccc5c(Cl)cccc45)c3)nc2c1 | inactive: 19.4% | – |
| CCCCn1c(CCCNC(=O)c2cccc(C)c2)nc2ccccc21 | inactive: -19.7% | – |
| COc1cccc(Cn2nnc3c(=O)[nH]c(C4CCCN(C(=O)c5ccccc5Cl)C4)nc32)c1 (stereo not drawn) | inactive: -28.1% | – |
| COc1ccc(CNc2nc(-c3ccc(Cl)cc3)cc(C(F)(F)F)n2)cc1 | inactive: 15.9% | – |
| Cc1cccc(NC(=O)C(=O)NCCCN2CCOCC2)c1 | inactive: -2.83% | – |
| COc1ccc(NC(=O)c2nc(SCc3ccc(F)cc3)ncc2Cl)cc1 | inactive: 4.78% | – |
| CCOc1ccc(NC(=O)c2sc(-n3nc(C)c(CCC(C)C)c3C)nc2C)cc1 | inactive: 7.97% | – |
| CCOc1ccccc1NC(=O)CSc1ncc2c(n1)-c1ccccc1N(CC)S2(=O)=O | inactive: -3.53% | – |
| COc1ccc(CNCc2ccc(C(=O)O)s2)cc1 | inactive: 2.28% | – |
| CCCCOC(=O)CSc1ncnc2sc3c(c12)CCC(C)C3 (stereo not drawn) | inactive: -2.9% | – |
| C=Cc1ccc(Cn2c(C(=O)O)c(CNCCc3ccco3)c3ccc(C)cc32)cc1 | inactive: -16.9% | – |
| COC(=O)c1cc2sccc2n1Cc1nc(-c2cccc(Cl)c2)oc1C | inactive: -1.07% | – |
| CC1=C(c2ccc(C)cc2)S(=O)(=O)NC1=NCc1ccccc1Cl | inactive: -18.9% | – |
| CCC(C)Nc1nc2c(c(=O)[nH]c(=O)n2C)n1Cc1ccc(F)cc1 (stereo not drawn) | inactive: -1.96% | – |
| CCOc1ccccc1CNC(=O)c1ccc2nc(N3CCC(C)CC3)sc2c1 | inactive: -2.86% | – |
| Cc1ccc(-n2ncc3c(NCCc4ccc(S(N)(=O)=O)cc4)ncnc32)cc1 | inactive: 2.66% | – |
| CCN(C(=O)Cn1c(=O)oc2cc(S(=O)(=O)N3CCCCCC3)ccc21)c1cccc(C)c1 | inactive: 21.8% | – |
| O=C(NCc1ccccc1)NC1COc2ccccc2C1 (stereo not drawn) | inactive: 3.38% | – |
| Cn1cc(S(=O)(=O)N2CCCCCC2)cc1C(=O)NCc1ccc(F)cc1 | inactive: 2.64% | – |
| Cc1cccc(OC(=O)c2snnc2C)c1 | inactive: -1.21% | – |
| Cc1cccc(C)c1Nc1c(-c2ccccn2)nc2ccc(Cl)cn12 | inactive: 13.7% | – |
| Cc1ccc(S(=O)(=O)Nc2cc(Cl)c3oc4c(c3c2)CCCC4)cc1 | inactive: 28.3% | – |
| Cc1c(-c2nsc(NC(=O)c3cccs3)n2)nnn1-c1ccc(F)cc1 | inactive: -1.36% | – |
